Some of the results follow.
B1: PhoQ; a variant is named by its letters at X, in order, P23837 (parent)
chain: MKKLLRLFFPLSLRVRFLLATAAVVLVLSLAYGMVALIGYSVSFDKTTFRLLRGESNLFYTLAKWENNKLHVELPENIDKQSPTMTLIYDENGQLLWAQRDVPWLMKMIQPDWLKSNGFHEIEADVNDTSLLLSGDHSIQQQLQEVREDDDDAEMTHSVAVNVYPATSRMPKLTIVVVDTIPVELKSSYMVWSWFIYVLSANLLLVIPLLWVAAWWSLRPIEALAKEVRELEEHNRELLNPATTRELTSLVRNLNRLLKSERERYDKYRTTLTDLTHSLKTPLXXLQXXLRSLRSEKMSVSDAEPVMLEQISRISQQIGYYLHRASMRGGTLLSRELHPVAPLLDNLTSALNKVYQRKGVNISLDISPEISFVGEQNDFVEVMGNVLDNACKYCLEFVEISARQTDEHLYIVVEDDGPGIPLSKREVIFDRGQRVDTLRPGQGVGLAVAREITEQYEGKIVAGESMLGGARMEVIFGRQHSAPKDE

Variants of: B1
Assay: enrichment ratio after two sorts for PhoP signalling (ratio (wild type AVST 3.29)); higher = more functional
Conditions: with PhoP (E. coli)

RSPP and HQLN cannot be ordered by enrichment ratio: ≤ 0.25 for the first, ≤ 0.25 for the second.

QLWA and WHAR cannot be ordered by enrichment ratio: ≤ 0.25 for the first, ≤ 0.25 for the second.

FGHP and MHCP cannot be ordered by enrichment ratio: ≤ 0.25 for the first, ≤ 0.25 for the second.

Going from ACVL to SDLY, the enrichment ratio falls from 5.91 to 0.38.

VRVL and NQQD cannot be ordered by enrichment ratio: ≤ 0.25 for the first, ≤ 0.25 for the second.

DQPT and WTCW cannot be ordered by enrichment ratio: ≤ 0.25 for the first, ≤ 0.25 for the second.

First: WPCC
Second: STAR
The enrichment ratio of the first is lower: ≤ 0.25 for the first, 0.472 for the second.

LSDQ and VSLW cannot be ordered by enrichment ratio: ≤ 0.25 for the first, ≤ 0.25 for the second.

GHWY and QVWI cannot be ordered by enrichment ratio: ≤ 0.25 for the first, ≤ 0.25 for the second.

IVHN and RCWD cannot be ordered by enrichment ratio: ≤ 0.25 for the first, ≤ 0.25 for the second.

QSAK and ASDY cannot be ordered by enrichment ratio: ≤ 0.25 for the first, ≤ 0.25 for the second.

MENM and EGQI cannot be ordered by enrichment ratio: ≤ 0.25 for the first, ≤ 0.25 for the second.

HYHF and LMHN cannot be ordered by enrichment ratio: ≤ 0.25 for the first, ≤ 0.25 for the second.

FRIQ and KAKL cannot be ordered by enrichment ratio: ≤ 0.25 for the first, ≤ 0.25 for the second.

ETQE and RCEW cannot be ordered by enrichment ratio: ≤ 0.25 for the first, ≤ 0.25 for the second.

LLVY and YMKH cannot be ordered by enrichment ratio: ≤ 0.25 for the first, ≤ 0.25 for the second.

Compared with VLEP, SNLT is higher in enrichment ratio: ≤ 0.25 for the first, 7.56 for the second.

PKDN and DFQL cannot be ordered by enrichment ratio: ≤ 0.25 for the first, ≤ 0.25 for the second.

Going from AVVM to RMDT, the enrichment ratio falls from 2.31 to ≤ 0.25.

NYGR and GGQH cannot be ordered by enrichment ratio: ≤ 0.25 for the first, ≤ 0.25 for the second.

First: SNGM
Second: QLWD
The enrichment ratio of the first is higher: 15.3 for the first, ≤ 0.25 for the second.

DRKC and VVSW cannot be ordered by enrichment ratio: ≤ 0.25 for the first, ≤ 0.25 for the second.

HIWK and GLLN cannot be ordered by enrichment ratio: ≤ 0.25 for the first, ≤ 0.25 for the second.

YMDV and MHFA cannot be ordered by enrichment ratio: ≤ 0.25 for the first, ≤ 0.25 for the second.

TTFD and PMGV cannot be ordered by enrichment ratio: ≤ 0.25 for the first, ≤ 0.25 for the second.

YIRC and DAAC cannot be ordered by enrichment ratio: ≤ 0.25 for the first, ≤ 0.25 for the second.

Going from HGLG to ETHA, the enrichment ratio falls from 0.363 to ≤ 0.25.

PTAT and NNFT cannot be ordered by enrichment ratio: ≤ 0.25 for the first, ≤ 0.25 for the second.

FGLW and IGHQ cannot be ordered by enrichment ratio: ≤ 0.25 for the first, ≤ 0.25 for the second.

GGDF and IRTS cannot be ordered by enrichment ratio: ≤ 0.25 for the first, ≤ 0.25 for the second.

Going from GESC to HQTW, the enrichment ratio falls from 9.96 to ≤ 0.25.

FWEQ and LPSW cannot be ordered by enrichment ratio: ≤ 0.25 for the first, ≤ 0.25 for the second.

RTVF and VKLG cannot be ordered by enrichment ratio: ≤ 0.25 for the first, ≤ 0.25 for the second.

QKGI and WNDL cannot be ordered by enrichment ratio: ≤ 0.25 for the first, ≤ 0.25 for the second.

YQKT and WTPY cannot be ordered by enrichment ratio: ≤ 0.25 for the first, ≤ 0.25 for the second.

NPVS and QSLE cannot be ordered by enrichment ratio: ≤ 0.25 for the first, ≤ 0.25 for the second.

RMTQ and YEYW cannot be ordered by enrichment ratio: ≤ 0.25 for the first, ≤ 0.25 for the second.

WIPY and WKKH cannot be ordered by enrichment ratio: ≤ 0.25 for the first, ≤ 0.25 for the second.

HHCI and VEHF cannot be ordered by enrichment ratio: ≤ 0.25 for the first, ≤ 0.25 for the second.

Going from NYFI to STYS, the enrichment ratio rises from ≤ 0.25 to 0.267.

First: VNHG
Second: YDNI
The enrichment ratio of the first is higher: 0.693 for the first, ≤ 0.25 for the second.

QLAR and TSER cannot be ordered by enrichment ratio: ≤ 0.25 for the first, ≤ 0.25 for the second.

YHGK and DAGM cannot be ordered by enrichment ratio: ≤ 0.25 for the first, ≤ 0.25 for the second.

FYSW and MCIG cannot be ordered by enrichment ratio: ≤ 0.25 for the first, ≤ 0.25 for the second.

First: FMPV
Second: QASA
The enrichment ratio of the first is lower: ≤ 0.25 for the first, 1.56 for the second.

NQPD and LQLV cannot be ordered by enrichment ratio: ≤ 0.25 for the first, ≤ 0.25 for the second.

Compared with TQPY, IALG is higher in enrichment ratio: ≤ 0.25 for the first, 2.3 for the second.

DFGW and KFDW cannot be ordered by enrichment ratio: ≤ 0.25 for the first, ≤ 0.25 for the second.

YMYQ and PPKN cannot be ordered by enrichment ratio: ≤ 0.25 for the first, ≤ 0.25 for the second.

IKGS and RHPN cannot be ordered by enrichment ratio: ≤ 0.25 for the first, ≤ 0.25 for the second.

RSGG and KFSL cannot be ordered by enrichment ratio: ≤ 0.25 for the first, ≤ 0.25 for the second.

SVFC and FDLD cannot be ordered by enrichment ratio: ≤ 0.25 for the first, ≤ 0.25 for the second.

CVPL and PCMM cannot be ordered by enrichment ratio: ≤ 0.25 for the first, ≤ 0.25 for the second.

WGKA and YGAH cannot be ordered by enrichment ratio: ≤ 0.25 for the first, ≤ 0.25 for the second.

DGGG and FYRY cannot be ordered by enrichment ratio: ≤ 0.25 for the first, ≤ 0.25 for the second.

TFSK and MNIK cannot be ordered by enrichment ratio: ≤ 0.25 for the first, ≤ 0.25 for the second.

FFPK and LCVR cannot be ordered by enrichment ratio: ≤ 0.25 for the first, ≤ 0.25 for the second.

QLIM and PAIC cannot be ordered by enrichment ratio: ≤ 0.25 for the first, ≤ 0.25 for the second.

Going from GDIA to SVLP, the enrichment ratio falls from 4.2 to ≤ 0.25.

Compared with SIKM, SSWI is higher in enrichment ratio: ≤ 0.25 for the first, 2.38 for the second.

LFKR and NRKY cannot be ordered by enrichment ratio: ≤ 0.25 for the first, ≤ 0.25 for the second.

VTEL and DHYE cannot be ordered by enrichment ratio: ≤ 0.25 for the first, ≤ 0.25 for the second.

ESVY and RPND cannot be ordered by enrichment ratio: ≤ 0.25 for the first, ≤ 0.25 for the second.

APAD and YRSN cannot be ordered by enrichment ratio: ≤ 0.25 for the first, ≤ 0.25 for the second.

Compared with LSFC, WTLR is lower in enrichment ratio: 0.328 for the first, ≤ 0.25 for the second.

SMEQ and YPRG cannot be ordered by enrichment ratio: ≤ 0.25 for the first, ≤ 0.25 for the second.

Compared with IFFC, AVTH is higher in enrichment ratio: ≤ 0.25 for the first, 9.18 for the second.

PSPA and VDSG cannot be ordered by enrichment ratio: ≤ 0.25 for the first, ≤ 0.25 for the second.

NPHR and IWFY cannot be ordered by enrichment ratio: ≤ 0.25 for the first, ≤ 0.25 for the second.

GQFN and KKAD cannot be ordered by enrichment ratio: ≤ 0.25 for the first, ≤ 0.25 for the second.

IYNG and MRAM cannot be ordered by enrichment ratio: ≤ 0.25 for the first, ≤ 0.25 for the second.

LLQL and PKPC cannot be ordered by enrichment ratio: ≤ 0.25 for the first, ≤ 0.25 for the second.

Compared with YKYT, SQIM is higher in enrichment ratio: ≤ 0.25 for the first, 20.8 for the second.

WADL and LFWG cannot be ordered by enrichment ratio: ≤ 0.25 for the first, ≤ 0.25 for the second.

YQDT and GFKM cannot be ordered by enrichment ratio: ≤ 0.25 for the first, ≤ 0.25 for the second.

EVAV and GKWI cannot be ordered by enrichment ratio: ≤ 0.25 for the first, ≤ 0.25 for the second.

With MFYT the enrichment ratio was ≤ 0.25.

— a collection of fitness landscapes (doi:10.1126/science.1257360)
